Results taken from PubChem BioAssay AID720708 (National Center for Advancing Translational Sciences (NCATS), 2013).
Among all 360,000 compounds or so, about 660 (0.18%) were called active. Inconclusive means that the source gave no clear call. Such entries were picked first, then a sample of the others. Calls follow the shape of the dose curve; as a rule, active = well fitted inhibition curve with a large enough effect; inconclusive = small, poorly fitted or top-dose-only effect; inactive = no such curve, though single readings can be large or run the other way. Potencies of inconclusive entries are left out as doubtful fits.

Molecular target: Rap guanine nucleotide exchange factor 4 (Homo sapiens) (UniProt Q8WZA2)
Chain of UniProt Q8WZA2 (Q8WZA2 whole entry, looked up): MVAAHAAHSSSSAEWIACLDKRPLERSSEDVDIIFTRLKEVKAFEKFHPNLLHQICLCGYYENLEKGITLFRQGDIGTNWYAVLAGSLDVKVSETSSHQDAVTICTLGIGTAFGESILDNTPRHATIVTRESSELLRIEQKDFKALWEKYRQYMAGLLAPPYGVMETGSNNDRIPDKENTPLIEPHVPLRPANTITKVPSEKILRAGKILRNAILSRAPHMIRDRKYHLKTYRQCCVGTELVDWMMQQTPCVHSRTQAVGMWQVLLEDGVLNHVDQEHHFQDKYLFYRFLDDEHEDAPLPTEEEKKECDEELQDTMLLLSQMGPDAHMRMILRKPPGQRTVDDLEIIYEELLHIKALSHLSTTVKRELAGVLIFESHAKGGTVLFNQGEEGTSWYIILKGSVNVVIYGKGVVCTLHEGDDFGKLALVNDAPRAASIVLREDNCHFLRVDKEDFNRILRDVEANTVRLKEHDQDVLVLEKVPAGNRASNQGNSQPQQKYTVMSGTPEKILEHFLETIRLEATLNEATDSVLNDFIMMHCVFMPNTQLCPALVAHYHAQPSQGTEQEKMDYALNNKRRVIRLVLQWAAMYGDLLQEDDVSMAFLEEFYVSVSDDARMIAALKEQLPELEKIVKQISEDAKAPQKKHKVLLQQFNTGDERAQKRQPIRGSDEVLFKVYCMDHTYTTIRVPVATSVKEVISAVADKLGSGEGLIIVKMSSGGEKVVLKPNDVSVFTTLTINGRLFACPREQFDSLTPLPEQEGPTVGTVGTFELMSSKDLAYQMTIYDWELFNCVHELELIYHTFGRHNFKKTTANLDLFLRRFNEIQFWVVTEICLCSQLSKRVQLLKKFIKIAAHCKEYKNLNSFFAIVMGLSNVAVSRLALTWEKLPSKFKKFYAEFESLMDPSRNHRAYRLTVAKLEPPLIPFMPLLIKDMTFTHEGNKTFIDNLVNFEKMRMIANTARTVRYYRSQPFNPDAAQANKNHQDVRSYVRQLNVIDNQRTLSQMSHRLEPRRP
Experiment: qHTS for Antagonist of cAMP-regulated guanine nucleotide exchange factor 2 (EPAC2): primary screen; also: nearly all actives have a fitted effect of over 45% in size
Conditions: EPAC2 GEF exchange of Rap1B-BODIPY-GDP, fluorescence; activity, negative = inhibition: at 114 µM (top of the series) unless noted
% is scaled to controls: 0 for no effect and ±100 for the full control effect; potency is read from the fitted curve at half-maximal effect; tags tell the direction and shape of the fitted curve.

| Structure (SMILES) | Potency | activity, negative = inhibition |
| --- | --- | --- |
| COc1ccc(N2C(=O)C3CCCN3C2c2cccc(F)c2)cc1Cl (centres undefined) | inconclusive [inhibitor, single point] |  |
| CC(=O)NC(c1ccccc1)c1nc(-c2cccc(F)c2)cs1 (centres undefined) | inconclusive [inhibitor, full curve] |  |
| N#C/C(=C\c1ccc(C(=O)O)cc1)c1nc2sc3c(c2c(=O)[nH]1)CCCC3 |  | inactive: 158% |
| ClCCn1cnc2c(SCc3ccccc3Cl)ncnc21 | inconclusive [inhibitor, partial curve] |  |
| CCCCCc1c(-c2ccc(F)cc2F)ncn1CCc1ccccc1OC | inconclusive [inhibitor, partial curve] |  |
| C=C1CN(Cc2ccccc2)S(=O)(=O)c2ccccc21 | inconclusive [inhibitor, partial curve] |  |
| Cc1onc(-c2c(Cl)cccc2Cl)c1C(=O)Nc1ccc(Cl)cn1 | inconclusive [inhibitor, partial curve] |  |
| C=CCC[C@H](CCCCC)OC(=O)/C=C/[C@H](O)[C@@H](O)C[C@H](O)CC=C | inconclusive [inhibitor, partial curve] |  |
| COc1ccc(S(=O)(=O)N2CCCC2)c(C)c1C | inconclusive [inhibitor, partial curve] |  |
| Nc1nonc1-c1noc(CCCN2C(=O)c3ccccc3C2=O)n1 |  | inactive: -9.92% |
| COCC1CCCCN1C(=O)c1cccc(OC2CCN(C(=O)C3CC3)CC2)c1 (centres undefined) |  | inactive: -5.97% |
| Cc1cccc(Oc2nc(-c3ccccn3)nc3ccccc23)c1 | inconclusive [inhibitor, full curve] |  |
| O=C(NC1CCCC1)C(c1ccc(Cl)cc1)N1CCc2ccccc21 (centres undefined) |  | inactive: -6.84% |
| CN(C)/C=C\C(=C/C(=O)C(F)(F)F)Nc1ccccc1Oc1ccccc1 | inconclusive [inhibitor, partial curve] |  |
| CN1C(=O)S/C(=C\c2ccc(-n3cncn3)cc2)C1=O |  | inactive: -5.72% |
| CCOc1ccccc1NC(=O)C(NCC1CCCCC1)c1ccccc1 (centres undefined) | inconclusive [inhibitor, full curve] |  |
| COc1ccc(C2C(C(C)=O)=C(O)C(=O)N2c2nccs2)cc1OC (centres undefined) |  | inactive: -0.9% |
| CCN1C(=O)N[C@@H](c2ccccc2)[C@@H](C(=O)OC)[C@H]1C |  | inactive: 4.3% |
| CCc1ccccc1NC(=S)NCCSc1ccc(Cl)cc1 | inconclusive [inhibitor, partial curve] |  |
| Cc1ccc(Cn2c(C(CO)Nc3nc(-c4ccc(F)cc4)cs3)nc3ccccc32)cc1 (centres undefined) | inconclusive [inhibitor, partial curve] |  |
| CC(C)c1nc(SCC(=O)c2ccc(F)cc2)c2ccccc2n1 | inconclusive [inhibitor, partial curve] |  |
| CC1CC(C)CN(S(=O)(=O)c2ccc3c(c2)CC(C)N3C(=O)C2CC2)C1 (centres undefined) | inconclusive [inhibitor, full curve, poor fit] |  |

| Structure (SMILES) | Potency | activity, negative = inhibition |
| --- | --- | --- |
| C#CC(c1ccccc1)(c1ccccc1)n1ccnc1 | inconclusive [inhibitor, partial curve] |  |
| Cc1ccc(-c2cc(-c3ccc(F)cc3)nc(N)c2C#N)o1 |  | inactive: -3.32% |
| COc1cccc(CNC(=O)[C@H](C)NC(=O)C2CCN(S(=O)(=O)c3ccccc3)CC2)c1 |  | inactive: -5.75% |
| Clc1cccc(-c2nc3ccc(Cl)cn3c2Cc2ccsc2)c1 | inconclusive [inhibitor, single point] |  |
| CCCCc1c(Cc2cccc(F)c2)ncn1CCc1ccccc1OC | inconclusive [inhibitor, partial curve] |  |
| O=C(NCc1ccccn1)c1ccccc1OCc1ccccc1Cl | inconclusive [inhibitor, partial curve] |  |
| Cc1ccc(-c2nn(-c3ccccc3)cc2C=C2SC(=S)N(CCS(=O)(=O)O)C2=O)cc1 | active: 44.7 µM |  |
| CC1(C)C(=Cc2ccccc2)C(=O)c2ccccc21 | inconclusive [inhibitor, partial curve] |  |
| O=[N+]([O-])c1ccc(N2CCCCC2)nc1N1CCCCC1 | inconclusive [inhibitor, partial curve] |  |
| COCc1cc(CN2CCCC(C(=O)Nc3ccc(-c4ccco4)cc3)C2)ccc1OC (centres undefined) |  | inactive: -6.24% |
| CC(C)c1ccc(/C=C/C(=O)Nc2ccc(CN3CCOCC3)cc2)cc1 | inconclusive [inhibitor, full curve] |  |
| CC(C)(C)S(=O)N1Cc2cc(C(=O)NCC(F)(F)F)nc(-c3cccc(-c4cccc(F)c4)c3)c2[C@@H]1CCO (some centres undefined) | inconclusive [inhibitor, single point] |  |
| CCOC(=O)C1=CCC(c2ccccc2C)N(S(=O)(=O)c2ccc(C)cc2)C1 (centres undefined) |  | inactive: -3.56% |
| COc1ccc(CCNC(=O)c2ccc(CN3CCC(Cc4ccccc4)CC3)cc2)cc1OC |  | inactive: -1.08% |
| C=C(C)COc1ccc(-c2nc(N)ncc2-c2ccc(OC)c(OC)c2)c(O)c1 | inconclusive [inhibitor, partial curve] |  |
| Cc1cccc(OCC(=O)NCC(=O)N=Nc2c(O)[nH]c3ccc([N+](=O)[O-])cc23)c1 | inconclusive [inhibitor, full curve, poor fit] |  |
| C=CCN(CC=C)Cc1cc(=O)oc2ccc3ccccc3c12 | inconclusive [inhibitor, partial curve] |  |
| O=C1CCC(c2ccccc2)(c2ccccc2)CC1 | inconclusive [inhibitor, partial curve] |  |
| COc1ccccc1NC(=O)Nc1nnc(CC(=O)Nc2ccccc2C)s1 |  | inactive: 14.1% |
| OC[C@@H]1[C@@H](c2ccc(F)cc2)C(c2cccc(Cl)c2)=NN1c1ccccc1 | inconclusive [inhibitor, single point] |  |
| O=C(NCCN1CCC(n2c(=O)[nH]c3ccccc32)CC1)c1ccc(Cl)c(Cl)c1 |  | inactive: -0.144% |
| C=C(C)Cn1c(SCC(=O)N/N=C/c2ccccc2OCC(=O)O)nnc1-c1ccc(Br)cc1 | inconclusive [inhibitor, partial curve] |  |
